Several values for one entry are separate records, joined by “and”; a condition that tells them apart may be missing. Equal entries are not always repeated. Among all 16,000 compounds or so, about 40 (0.2%) were called active. Another 1% or so got no clear call; they are omitted. The call rests on the fitted dose curve; in most records, active means well fitted activation curve with a large enough effect; inconclusive means small, poorly fitted or top-dose-only effect, or another doubt; inactive means no such curve, though single readings can be large or run the other way. Some of the results follow.
Each molecule was assayed against Rap guanine nucleotide exchange factor 4 (Homo sapiens) (UniProt Q8WZA2) (assay: Validation qHTS for agonist of cAMP-regulated guanine nucleotide exchange factor 4 (EPAC2)). Details: EPAC2 Rap1B BODIPY-GDP exchange, fluorescence; activation: active compounds read high.
UniProt Q8WZA2, sequence (Q8WZA2 whole entry, looked up): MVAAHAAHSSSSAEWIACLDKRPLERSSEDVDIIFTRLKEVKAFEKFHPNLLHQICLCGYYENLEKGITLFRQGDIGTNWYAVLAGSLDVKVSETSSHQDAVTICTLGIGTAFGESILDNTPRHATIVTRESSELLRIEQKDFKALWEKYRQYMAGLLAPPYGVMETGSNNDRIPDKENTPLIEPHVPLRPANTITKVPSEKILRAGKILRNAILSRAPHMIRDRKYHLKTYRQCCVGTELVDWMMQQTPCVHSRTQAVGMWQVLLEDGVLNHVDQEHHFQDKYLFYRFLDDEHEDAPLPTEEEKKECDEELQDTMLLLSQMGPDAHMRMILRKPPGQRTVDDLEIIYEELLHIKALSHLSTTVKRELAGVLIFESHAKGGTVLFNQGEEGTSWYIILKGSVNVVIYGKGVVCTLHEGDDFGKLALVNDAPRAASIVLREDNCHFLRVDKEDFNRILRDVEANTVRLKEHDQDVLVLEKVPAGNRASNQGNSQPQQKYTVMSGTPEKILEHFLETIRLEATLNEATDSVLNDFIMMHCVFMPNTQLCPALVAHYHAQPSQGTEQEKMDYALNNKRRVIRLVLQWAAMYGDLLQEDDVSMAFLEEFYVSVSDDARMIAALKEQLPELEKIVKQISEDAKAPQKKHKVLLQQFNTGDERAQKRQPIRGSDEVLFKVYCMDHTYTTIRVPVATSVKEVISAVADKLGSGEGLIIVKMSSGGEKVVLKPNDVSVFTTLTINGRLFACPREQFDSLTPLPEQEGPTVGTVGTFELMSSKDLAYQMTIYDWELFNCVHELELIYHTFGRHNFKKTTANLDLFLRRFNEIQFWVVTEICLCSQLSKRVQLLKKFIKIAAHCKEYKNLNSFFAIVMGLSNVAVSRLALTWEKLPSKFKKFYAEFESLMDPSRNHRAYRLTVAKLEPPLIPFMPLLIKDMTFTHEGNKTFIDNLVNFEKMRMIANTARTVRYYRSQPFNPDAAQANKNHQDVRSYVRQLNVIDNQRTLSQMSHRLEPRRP
Procedure, shortened: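 Fluorescent exchange assay: 100 nM EPAC2 with 250 nM RAP1B-BODIPY-GDP and 50 uM GDP; compound added, 5 min at room temperature, then read (ex 480/em 540 nm) every 5 min for 30 min. Normalized to 6.5 mM cAMP agonist control.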
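Further: exchange makes BODIPY-GDP fluorescence drop when released from Rap1B; series mostly up to about 150 µM.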
On the % scale 0 is the no-effect control and ±100 the full control effect.

activation, inactive:
CN(C)Cc1ccccc1-c1nccc(N(C)Cc2ccco2)n1 -2.04%, O=C(c1n[nH]c2c1CCCC2)N1CCOc2ccc(C(O)C(c3ccccc3)c3ccccc3)cc2C1 (centres undefined) -11.1%, CCN(Cc1ccncc1)Cc1ccc2c(c1)CN(C(=O)c1cccc(-n3nc(C)cc3C)c1)CCO2 -3.51%, Nc1ccncc1N -12.2%, Oc1ccc([C@@H]2CNCCc3c2cc(O)c(O)c3Cl)cc1 -19.8%, COC(=O)[C@H]1[C@H]2C[C@@H]3c4[nH]c5ccccc5c4CCN3C[C@H]2C[C@@H](OC(=O)c2cc(OC)c(OC)c(OC)c2)[C@@H]1OC -64.8% and -22.4%, COc1ccccc1CN1CCOc2ccc(C(C)(O)COc3ccccc3)cc2C1 (centres undefined) -9.38%, Cc1noc(C)c1C(=O)N1CCC2(CCN(C(=O)Nc3ccccc3)CC2)CC1 -15.8%, O=C(O)c1ccc(-n2nc(-c3ccccc3O)nc2-c2ccccc2O)cc1 -42%, N#Cc1cccc(-c2nc(Nc3ccncc3)c3ccccc3n2)c1 10.6%, COc1ccccc1-c1ccc(C(=O)NCCN2CCOCC2)c(N2CCN(c3ccccc3F)CC2)n1 -19.2%, COc1ccc(-c2coc3cc(O)ccc3c2=O)c(O)c1O -5.92%, CCCCCC(=O)Cc1cc(O)cc(O)c1C(=O)Oc1cc(CC(=O)CCCCC)c(C(=O)O)c(OC)c1 -12.7%, NC(=O)OCC(O)COc1ccc(Cl)cc1 (centres undefined) 1.95%, Cn1c(=O)c(-c2cccs2)nc2cncnc21 23%, O=C(c1cnsn1)N1CCOc2ccc(C(O)C(c3ccccc3)c3ccccc3)cc2C1 (centres undefined) 0.265%, O=C(N[C@@H]1c2ccccc2C2(CCN(C(=O)c3cc4ccccc4oc3=O)CC2)[C@H]1O)c1cccnc1 -11.6%, O=C(C[n+]1ccncc1Cl)c1ccc(F)cc1 -13.4%, COc1cc(C)c(CN2CCOc3ccc(C(O)c4cccnc4)cc3C2)cc1C (centres undefined) -6.67%, COc1ccc(C2Oc3cc(OC)cc(OC)c3CC2O)cc1 (centres undefined) -16.6%, CCCOC(=O)N[C@@H]1C(=O)N2C(C(=O)OCCC)=C(C)CS[C@H]12 -8.74%, N[C@H](C(=O)O)[C@H]1C[C@H]1C(=O)O -8%, COCCOC(=O)C1=C(C)NC(C)=C(C(=O)OC(C)C)C1c1cccc([N+](=O)[O-])c1 (centres undefined) 0.181% [middle of 4 runs], CN1C(C(=O)Nc2ccccn2)=C(O)c2ccccc2S1(=O)=O -4.2% [middle of 4 runs]
